{"source": "PubChem BioAssay AID686979", "about": "(National Center for Advancing Translational Sciences (NCATS), 2013)", "note": "Values joined by “and” are separate entries in the source; they are usually repeats but may differ in a detail not shown here. Equal entries are not always repeated. The whole screen tested about 420,000 compounds, of which about 50,000 (12%) were called active. This list was built around the results that the source calls inconclusive (neither active nor inactive); the mix of calls is not that of the screen. Calls follow the shape of the dose curve; as a rule, active = well fitted inhibition curve with a large enough effect; inconclusive = small, poorly fitted or top-dose-only effect; inactive = flat fitted curve, though single readings scatter. A potency beside an inconclusive call is a rough fit, not a confirmed value. % is scaled to controls: 0 for no effect and ±100 for the full control effect; potency is read from the fitted curve at half-maximal effect; tags tell the direction and shape of the fitted curve."}
{"experiment": "qHTS for Inhibitors of human tyrosyl-DNA phosphodiesterase 1 (TDP1): qHTS in cells in presence of CPT; also: nearly all actives have a fitted effect of over 55% in size", "settings": "chicken DT40 Tdp1-/-;hTDP1 cells + 20 nM CPT, ATP luminescence, 48 h; activity change, negative = growth inhibition: at 46.2 µM (top of the series) unless noted", "outline": "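Chicken DT40 Tdp1-/- cells complemented with human TDP1, 400 cells/well, exposed to compounds plus 20 nM camptothecin for at least 48 h at 37 C; viability read as ATP content by CellTiter-Glo luminescence.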"}
{"smiles": "COc1cc2ccccc2cc1C(=O)OCC(=O)N(C)c1c(N)n(Cc2ccccc2)c(=O)[nH]c1=O", "Potency": "inconclusive: 29.1 µM [inhibitor, single point]"}
{"smiles": "COc1cc(/C=C/c2ccc3ccccc3n2)cc(OC)c1OC", "Potency": "active: 0.158 µM"}
{"smiles": "C=CCn1c(COc2cccc(C)c2)nnc1SC(C)C(=O)NC1CC1", "note": "(stereo not given)", "activity change, negative = growth inhibition": "inactive: -16.1%"}
{"smiles": "NC1=NC(=Nc2cccc(Cl)c2)c2ccccc21", "Potency": "inconclusive: 29.1 µM [inhibitor, single point]"}
{"smiles": "Cc1ccc(NC(=O)CCc2c(C)nn(-c3ccc(N4CCCCC4)nn3)c2C)cc1F", "Potency": "inconclusive: 29.1 µM [inhibitor, single point] and inconclusive: 25.9 µM [inhibitor, single point]"}
{"smiles": "O=C1CC(c2ccccc2)=NN1c1ccc([N+](=O)[O-])cc1", "Potency": "active: 16.4 µM"}
{"smiles": "COc1ccc2c(c1OC)C(Cc1ccccc1)N1CCc3cc4c(cc3C1=C2)OCO4", "note": "(stereo not given)", "Potency": "active: 2.99 µM"}
{"smiles": "CS(=O)(=O)Nc1ccccc1C(=O)Nc1ccc2c(c1)OCCO2", "Potency": "inconclusive: 25.9 µM [inhibitor, single point]"}
{"smiles": "COc1ccccc1N1CCN(S(=O)(=O)c2ccc3c(c2)CC(C)N3C(C)=O)CC1", "note": "(stereo not given)", "Potency": "inconclusive: 11.6 µM [inhibitor, partial curve]"}
{"smiles": "COC(=O)[C@@]1(C(C)C)N=C(c2cc(OC)c(OC)c(OC)c2)[C@]2(O1)C(=O)Nc1ccc(F)cc12", "Potency": "inconclusive: 29.1 µM [inhibitor, single point]"}
{"smiles": "COc1ccc(-c2csc(NC(=O)CCN3C(=O)C4CC=CCC4C3=O)n2)cc1OC", "note": "(stereo not given)", "Potency": "active: 20.6 µM"}
{"smiles": "CC1(Oc2ccccc2)CCN(Cc2ccc(-c3ccccn3)cc2)C1", "note": "(stereo not given)", "Potency": "inconclusive: 25.9 µM [inhibitor, single point]"}
{"smiles": "CC(Oc1ccccc1)C(=O)Nc1cc(Cl)ccc1-n1cncn1", "note": "(stereo not given)", "Potency": "inconclusive: 29.1 µM [inhibitor, single point]"}
{"smiles": "CCOC(=O)c1cc(C)sc1NC(=O)CSc1nccn1C", "Potency": "inconclusive: 23.1 µM [inhibitor, single point]"}
{"smiles": "O=C(CSc1ccccn1)C12CC3CC(CC(C3)C1)C2", "Potency": "inconclusive: 23.1 µM [inhibitor, single point]"}
{"smiles": "Fc1ccccc1C1c2[nH]c3ccccc3c2CCN1Cc1cccn1-c1ncccn1", "note": "(stereo not given)", "Potency": "inconclusive: 9.2 µM [inhibitor, single point]"}
{"smiles": "CCOc1ccc(OCC)c(NC(=O)CC2Oc3ccc(C)cc3NC2=O)c1", "note": "(stereo not given)", "Potency": "inconclusive: 9.2 µM [inhibitor, partial curve]"}
{"smiles": "COC(=O)c1c(C)oc2c1cc(NS(=O)(=O)c1c(C)cc(C)cc1C)c1ccccc12", "Potency": "active: 11.6 µM"}
{"smiles": "O=S(=O)(c1ccc(Cl)cc1)c1nc(-c2ccccc2Br)oc1N1CCOCC1", "Potency": "active: 18.4 µM"}
{"smiles": "COc1ccc(Cl)cc1NC(=S)Nc1ccccc1C", "Potency": "inconclusive: 20.6 µM [inhibitor, single point]"}
{"smiles": "Cc1ccc(CCNC(=O)c2nnc(Cc3cccc(F)c3)o2)cc1", "Potency": "inconclusive: 8.2 µM [inhibitor, partial curve]"}
{"smiles": "Cc1ccc(N(Cc2cc(=O)[nH]c3ccccc23)C(=O)C(C)C)c(C)c1", "activity change, negative = growth inhibition": "inactive: -1.02%"}
{"smiles": "O=C(O)c1c2c(nc3ccccc13)CCCCC2", "activity change, negative = growth inhibition": "inactive: -17.8%"}
{"smiles": "CC(=O)N1c2ccc(S(=O)(=O)N3CCC(C(=O)N4CCN(c5cccc(C(F)(F)F)c5)CC4)CC3)cc2CC1C", "note": "(stereo not given)", "Potency": "active: 8.2 µM"}
{"smiles": "C/C(Nc1ccc(Cl)cc1)=C1/CCOC1=O", "activity change, negative = growth inhibition": "inactive: -11.7%"}
{"smiles": "CN(C)C(CNC(=O)c1cccc(S(=O)(=O)Nc2ccc(SC(F)F)cc2)c1)c1ccccc1", "note": "(stereo not given)", "Potency": "inconclusive: 9.2 µM [inhibitor, single point]"}
{"smiles": "CC1(C(=O)Nc2cccc(OC(F)(F)F)c2)Cc2c(-c3ccc4c(c3)OCO4)ccnc2O1", "note": "(stereo not given)", "Potency": "active: 20.6 µM"}
{"smiles": "COc1ccc(-c2cn(CCCOCc3ccccc3)nn2)cc1", "Potency": "inconclusive: 23.1 µM [inhibitor, single point]"}
{"smiles": "O=C(Nc1ccccc1)C1=C[C@H](c2csc3ccccc23)C[C@H](OCCCCO)O1", "Potency": "inconclusive: 29.1 µM [inhibitor, single point]"}
{"smiles": "COc1ccc(C2NCCc3cc(OC)c(OC)cc32)cc1OC", "note": "(stereo not given)", "activity change, negative = growth inhibition": "inactive: -20.6%"}
{"smiles": "CCOC(=O)C1=C(c2ccccc2)OC(N)=C(C#N)C1c1ccc(Cl)s1", "note": "(stereo not given)", "Potency": "inconclusive: 8.2 µM [inhibitor, partial curve]"}
{"smiles": "CSc1cccc(NS(=O)(=O)c2cc(Br)cnc2N)c1", "activity change, negative = growth inhibition": "inactive: 11.3%"}
{"smiles": "CCCc1nnc(NC(=O)C23CC4CC(CC(C4)C2)C3)s1", "Potency": "inconclusive: 11.6 µM [inhibitor, partial curve]"}
{"smiles": "COc1cc(C(C(=O)NC(C)(C)C)N(C(=O)CNC(=O)c2cccs2)c2cccnc2)cc(OC)c1OC", "note": "(stereo not given)", "activity change, negative = growth inhibition": "inactive: 9.68%"}
{"smiles": "C=CCN1C(=O)CSc2ccc(C(=O)NC3CCCCC3)cc21", "activity change, negative = growth inhibition": "inconclusive: -31% [inhibitor]"}
{"smiles": "CC1(C(=O)NS(=O)(=O)c2ccc(Cl)cc2)CCN1C(=O)C1(c2ccccc2)CCCC1", "note": "(stereo not given)", "Potency": "inconclusive: 8.2 µM [inhibitor, partial curve]"}
{"smiles": "COc1ccc(S(=O)(=O)NCC(c2cccs2)S(=O)(=O)c2ccc(C)cc2)cc1F", "note": "(stereo not given)", "Potency": "inconclusive: 18.4 µM [inhibitor, single point]"}
{"smiles": "CCn1c(SCC(=O)NC2CCCCC2)nnc1-c1cccs1", "activity change, negative = growth inhibition": "inactive: 0.735%"}
{"smiles": "CC(C)Oc1ccc(C(=O)Nc2ccc3oc(-c4ccncc4)nc3c2)cc1", "activity change, negative = growth inhibition": "inactive: -18.9%"}
{"smiles": "CCOC(=O)c1c(NC(=O)c2cccnc2)sc(C(C)=O)c1C", "Potency": "inconclusive: 29.1 µM [inhibitor, single point]"}
{"smiles": "COc1ccc(-c2cn3nc(N4CCCC(C(=O)Nc5ccc(Cl)cc5C)C4)sc3n2)cc1", "note": "(stereo not given)", "Potency": "inconclusive: 23.1 µM [inhibitor, partial curve]"}
{"smiles": "COCCOC(=O)C1=C(C)NC(SCC(=O)NC(C)(C)C)=C(C#N)C1c1ccco1", "note": "(stereo not given)", "Potency": "active: 25.9 µM"}
{"smiles": "Cc1ccc(S(=O)(=O)N2CCN(C(=O)Cn3nc(C(=O)O)c4ccccc4c3=O)CC2)cc1", "activity change, negative = growth inhibition": "inactive: 1.63%"}
{"smiles": "N#Cc1ccc(Cl)cc1NC(=O)COC(=O)c1ccc(S(=O)(=O)N2CCCC2)cc1", "activity change, negative = growth inhibition": "inactive: 20%"}
{"smiles": "CCOC(=O)/C(C)=N/NC(=O)c1ccc([N+](=O)[O-])cc1", "activity change, negative = growth inhibition": "inactive: 16.3%"}
{"smiles": "CCCC(CNC(C)=O)(C1=CCCCC1)c1ccccc1", "note": "(stereo not given)", "Potency": "active: 18.4 µM"}
{"smiles": "Oc1cccc(-c2csc(C(O)(c3ccccc3)C(F)(F)F)n2)c1", "note": "(stereo not given)", "Potency": "inconclusive: 29.1 µM [inhibitor, single point]"}
{"smiles": "CCCNc1nc(-c2ccccc2)c(C(=O)OCC)cc1C#N", "Potency": "active: 2.91 µM"}
{"smiles": "Cc1nnc(N(C)C(=O)c2ccncc2)s1", "activity change, negative = growth inhibition": "inactive: -1.3%"}
{"smiles": "COc1cc(NC(=O)C(NC(=O)C2CCC(C)CC2)C(C)C)cc(OC)c1OC", "note": "(stereo not given)", "Potency": "inconclusive: 29.1 µM [inhibitor, single point]"}
{"smiles": "COc1ccc(C(=O)N(C)c2ccccc2C(=O)NCCc2ccccc2)cc1", "Potency": "active: 4.11 µM"}
{"smiles": "C#CCN(C[C@H]1[C@H](OC(=O)NC2CCCC2)[C@H](OC(=O)NC2CCCC2)C[C@@H](C(=O)OC)[C@H]1C(=O)OC)S(=O)(=O)c1ccc(C)cc1", "Potency": "active: 13 µM"}
{"smiles": "Cc1ccc(/C=N/NC(=O)c2nnn(-c3nonc3N)c2C)o1", "activity change, negative = growth inhibition": "inactive: -19.5%"}
{"smiles": "Cc1cccn2c(=O)c3cc(C(=O)NCc4ccc(F)cc4)c(=N)n(CC4CCCO4)c3nc12", "note": "(stereo not given)", "Potency": "inconclusive: 23.1 µM [inhibitor, single point]"}
{"smiles": "CCCCOc1ccc(C(C)NC(=O)CCS(=O)(=O)Cc2ccccc2Cl)cc1", "note": "(stereo not given)", "Potency": "inconclusive: 1.16 µM [inhibitor, single point]"}
{"smiles": "COc1cc(CNc2ccccc2Oc2cc(=O)n(C)c(=O)n2C)cc(OC)c1OC", "Potency": "inconclusive: 29.1 µM [inhibitor, single point]"}
{"smiles": "Cc1ccc(CNC(=O)c2c[nH]c3ccc(S(=O)(=O)Nc4ccc(C(C)C)cc4)cc3c2=O)cc1", "Potency": "inconclusive: 16.4 µM [inhibitor, single point]"}
{"smiles": "CCc1ccc(C(=O)CN2C(=O)NC3(CCOc4ccccc43)C2=O)s1", "note": "(stereo not given)", "activity change, negative = growth inhibition": "inactive: -26.8%"}
{"smiles": "Fc1ccccc1CNc1nc(-c2cccnc2)nc2ccccc12", "Potency": "inconclusive: 29.1 µM [inhibitor, single point]"}
{"smiles": "Cc1cc(NC(=O)CSc2nnc(-c3ccc(Cl)s3)o2)no1", "Potency": "inconclusive: 20.6 µM [inhibitor, single point]"}
{"smiles": "CCc1cc(C(=O)N2CCCC(C(=O)c3ccc(C(F)(F)F)cc3)C2)n(C)n1", "note": "(stereo not given)", "Potency": "inconclusive: 20.6 µM [inhibitor, single point]"}
{"smiles": "O=[N+]([O-])c1cccc(S(=O)(=O)Nc2ccc(S(=O)(=O)N3CCCC3)cc2)c1", "activity change, negative = growth inhibition": "inactive: -27.5%"}
{"smiles": "CCCCN(CCNP(=O)(OCC)OCC)CP(=O)(OCC)OCC", "Potency": "inconclusive: 23.1 µM [inhibitor, single point]"}
{"smiles": "COC(=O)c1cc(OC)ccc1-c1ccc(OC)cc1", "Potency": "inconclusive: 29.1 µM [inhibitor, single point]"}
{"smiles": "O[C@@H]1CN(Cc2cccs2)[C@@H](c2ccccc2)C[C@H]1n1cc(-c2ccc(F)cc2)nn1", "Potency": "inconclusive: 18.4 µM [inhibitor, single point]"}
{"smiles": "CCCN1C(=O)C(O)(c2c(C)[nH]c3ccccc23)c2ccccc21", "note": "(stereo not given)", "Potency": "active: 5.17 µM"}
{"smiles": "COc1ccc(C(CNC(=O)c2cccc(S(=O)(=O)NCc3ccccc3)c2)N(C)C)cc1", "note": "(stereo not given)", "Potency": "inconclusive: 29.1 µM [inhibitor, single point]"}
{"smiles": "C[C@H](NC(=O)c1ccco1)C(=O)NCCc1ccc(S(N)(=O)=O)cc1", "activity change, negative = growth inhibition": "inactive: 0.242%"}
{"smiles": "CCOc1ccc(-c2nc(C#N)c(NCc3ccc4c(c3)OCO4)o2)cc1", "Potency": "inconclusive: 29.1 µM [inhibitor, single point]"}
{"smiles": "O=C(Nc1nc2ccccc2[nH]1)c1ccc(Br)o1", "Potency": "inconclusive: 25.9 µM [inhibitor, single point]"}
